Experimental data: PubChem BioAssay AID493208 (National Center for Advancing Translational Sciences (NCATS), 2011)
Out of some 44,000 compounds screened, about 340 (0.77%) were called active. Another 5% or so got no clear call; they are omitted. Calls come from the whole dose curve; as a rule, active = well fitted inhibition curve with a large enough effect; inconclusive = small, poorly fitted or top-dose-only effect; inactive = flat fitted curve, though single readings scatter. The list shows a part of the results.

Test: Acumen qHTS Assay for Inhibitors of the mTORC1 Signaling Pathway in MEF (Tsc2-/-, p53-/-) Cells: Sytravon;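 note: plate controls were DMSO for no effect and rapamycin for full effect; nearly all actives have a fitted effect of over 50% in size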
Conditions: phospho-rpS6 immunofluorescence/PI, 24 h; series mostly up to 38.3 µM; activity change, negative = inhibition: at the top concentration
Method in brief: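 Readout is phospho-S6 Alexa 488 signal normalized to PI per well, reported as % active cells with thresholds set from rapamycin (7.5 nM) and DMSO controls. Cells: Tsc2-/-, p53-/- MEFs, 24 hrs compound at 37 C; PI cell number serves as viability.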

Activity change, negative = inhibition, inactive:
Cc1cccc(C)c1NC(=O)CN1C(=O)c2ccccc2Sc2ncccc21 8.11%
COC(=O)c1cc2sc(C)cc2n1CC(=O)Nc1ccc(C)cc1Cl -7.67%
CC(=O)c1cc(-c2ccccc2)n(CC(=O)NCc2ccccc2C)c1C -1.99%
CC(C)OCCCNC(=O)c1nn(C)c2c1CSc1ccccc1-2 -17.8%
CCCOC(=O)c1ccc(Nc2c(C(=O)OCC)cnc3c(C)cc(Cl)cc23)cc1 1.32%
COc1ccc(-c2noc(CSc3nnc(-c4ccccc4)n3C)n2)cc1 -12.8%
Cc1oc2c(cc(NS(=O)(=O)c3ccc(F)cc3)c3ccccc32)c1C(=O)OCc1ccccc1 0.16%
COc1ccc(C)cc1NC(=O)CN1CCN(S(=O)(=O)c2ccc(Br)cc2)CC1 2.92%
COc1ccc(NC(=O)C2CCC(CNS(=O)(=O)c3cccs3)CC2)cc1OC (stereo unspecified) -2%
Clc1ccccc1-c1nnc(-c2ccccc2CNc2ccccc2)o1 -10%
COc1ccccc1CNC(=O)c1cc2ccc3ccc(C)[nH]c3c2n1 0%
Cc1ccccc1CSCCNC(=O)CN(c1ccccc1)S(=O)(=O)N(C)C -2.92%
CCN1CCc2c(sc(-n3cccc3)c2C(C)NC(=O)Nc2ccccc2C)C1 (stereo unspecified) 1.84%
Cc1cccc(CC(=O)Nc2cccc(-c3nc4cccnc4s3)c2)c1 -6.87%
CCn1nnc2cc(C(=O)Nc3cccc(C)c3C)ccc21 -12.1%
Cc1ccc(C)c(N2CCN(S(=O)(=O)c3csc(C(N)=O)c3)CC2)c1 -10.9%
Cc1cccc(Oc2ccc(NC(=O)CCC(=O)OCC(=O)c3ccc(Br)cc3)cc2)c1C -8.75%
Cc1ccc(C)c(CSc2cn(CCNC(=O)c3ccccc3F)c3ccccc23)c1 7.41%
COc1cccc(C(C(=O)NCc2ccccc2)N(C(=O)Cn2nnc3ccccc32)c2cccc(C(C)=O)c2)c1 (stereo unspecified) -4.08%
COc1ccc(Cc2c(C)nn(-c3nc(C)c(C(=O)Nc4ccc(C)cc4C)s3)c2C)cc1 0.545%
COc1cc(C2c3c(-c4ccccc4O)n[nH]c3C(=O)N2CCO)ccc1OCC(C)C (stereo unspecified) -20.1%
COc1ccc(NC(=O)c2oc3ccc(S(=O)(=O)N4CCC5(CC4)OCCO5)cc3c2C)cc1Cl 4.58%
CCCCc1ccc(NC(=O)CSc2nnc3[nH]c(=O)cc(C)n23)cc1 2.07%
CCCN1CCN(CCCNC(=O)c2ccc(CS(=O)c3ccc(OC)cc3)o2)CC1 (stereo unspecified) 4.31%
CCN(CC)CCNC(=O)c1cc2c(=O)oc3ccc(C)cc3c2s1 -18.7%
Cc1ccc(NC(=O)Cn2nnc3sc4c(c3c2=O)CCCC4)c(C)c1 2.83%
O=C(/C=C/c1ccc(Cl)cc1)Nc1nc(-c2cccs2)ns1 0.479%
Cc1cc(C)c(Cn2c3ccccc3c3cnn(CC(=O)NCC(C)c4ccccc4)c(=O)c32)c(C)c1 (stereo unspecified) 1.4%
CCn1cc(C(=O)NCc2ccc(F)cc2)c(=O)c2cc(S(=O)(=O)N(C)C)ccc21 1.05%
COc1cc(OC)c(NC(=O)CCNS(=O)(=O)c2ccc3c(c2)oc(=O)n3C)cc1Cl -6.02%
Cc1ccc(CNC(=O)CSC2=Nc3ccccc3C3=NC(C)C(=O)N23)cc1 (stereo unspecified) 1.87%
Cc1ccc2occ(CC(=O)N3CCN(c4cccc(Cl)c4)CC3)c2c1 -2.7%
CCCN1CCN(CCCNC(=O)Cn2c(-c3cccs3)cc3cc(Cl)ccc32)CC1 -0.299%
Cc1cc(Cl)ccc1NC(=O)c1cc2ccccn2n1 7.61%
CCOC(=O)c1ccccc1NC(=O)c1nn(C)c2c1COc1ccccc1-2 -17.5%
CC(=O)Nc1cccc(NC(=O)C(=O)NCCc2csc3nc(-c4ccccc4F)nn23)c1 0.85%
COc1ccccc1N1CCN(S(=O)(=O)c2ccc(-c3cnc(C4CC4)o3)cc2)CC1 0%
CC(C)CCNC(=O)c1cn(C)c2ccc(S(=O)(=O)N3CCOCC3)cc2c1=O -0.19%
Cc1ccc(OCc2nnc(-c3ccccc3)o2)cc1 -20.6%
COc1cc2c(cc1OC)C(COc1ccccc1OC)N(C(=O)c1ccccc1OC)CC2 (stereo unspecified) 1.77%
CCc1cccc(NC(=O)CCS(=O)(=O)c2cc3c4c(c2)CCN4C(=O)CC3)c1 1.65%
Cc1c(Cl)cccc1-n1nc(C)c2c(C)cc(=O)n(CC(=O)NCc3ccccc3)c21 0.393%
Cc1cccc(C(=O)Nc2cccc(OCc3cc(=O)n4ccccc4n3)c2)c1 9.47%
COc1cc2c(=O)c(S(=O)(=O)c3ccccc3)cn(CC(=O)Nc3ccccc3C)c2cc1OC 5.31%
Cc1cc(C)c(NC(=O)Cn2c(=O)n(Cc3ccccc3)c(=O)c3c(C)c(C(=O)N(C)C)sc32)c(C)c1 -1.89%
CCC1CCCCN1Cc1cn2c(-c3ccc(Br)cc3)nnc2s1 (stereo unspecified) -6.32%
CCS(=O)(=O)N1CCc2cc(C(=O)Nc3ccc(OC)cc3OC)ccc21 1.81%
CC(=O)c1cccc(NC(=O)c2nc(-c3ccccc3)n(-c3cccc(C)c3)n2)c1 0.887%
CCOc1ccccc1NC(=O)CN1CCN(S(=O)(=O)c2ccc(Br)cc2)CC1 6.8%
CCC(C)NC(=O)CSc1nc2cc3c(cc2c(=O)n1CCCCCC(=O)NCc1ccc(OC)cc1)OCO3 (stereo unspecified) -9.29%
COc1c(Cl)cc(Cl)cc1CNCCSc1nnnn1C 3.7%
O=C(Nc1nc2n(n1)C(c1ccc(F)cc1)C=C(c1ccccc1)N2)c1cccc([N+](=O)[O-])c1 (stereo unspecified) 3.84%
Cc1ccc(Nc2sc(C(=O)c3ccccc3)c(N)c2S(=O)(=O)c2ccccc2)c(C)c1 1.39%
COc1ccccc1N1CCN(C(=O)Cn2c(=O)n3nc(-c4cccc(C)c4)nc3c3ccccc32)CC1 3.64%
COc1ccc(CCNC(=O)c2c(C)nn(-c3ccc(F)cc3)c2-n2cccc2)c(OC)c1OC -12.3%
CCCSc1ncc(Cl)c(C(=O)Nc2c(C(=O)c3ccc(F)cc3)oc3ccccc23)n1 -9.18%
COc1ccc(-n2ncc(C(=O)Nc3ccc4c(c3)OCCO4)c2C2CCN(C(=O)OC(C)(C)C)CC2)cc1 -7.43%
CCOc1ccc(CNC(=O)C2CCCN(S(=O)(=O)N(CC)c3ccc(OCC)cc3)C2)cc1 (stereo unspecified) -12.5%
CCN(C(=O)Cn1nc(Cc2ccncc2)c2ccccc2c1=O)c1cccc(C(F)(F)F)c1 -7.14%
CC(C)Cn1c(=O)c2ccccc2n2c(CCC(=O)Nc3ccc(F)c(F)c3)nnc12 -6.08%
O=C(NCCc1ccccc1)c1ccc2c(c1)CCN2S(=O)(=O)c1ccccc1 -18%
Cc1ccc(S(=O)(=O)N2CCC(C(=O)Nc3ccc(Oc4ccccc4)cc3)CC2)cc1 -22.4%
CC(C)CSc1ccccc1NC(=O)c1sc2nc(-c3ccncc3)ccc2c1N -18.5%
CCOC(=O)c1c(NC(=O)C(C)Oc2ccc(Cl)c(C)c2)sc2c1CCCC2 (stereo unspecified) -4.88%
Cc1cc(C)cc(NC(=O)CN2C(=O)CCc3cc(S(=O)(=O)N4CCCCC4)ccc32)c1 0%
O=C(Cn1cc(S(=O)(=O)Cc2ccccc2F)c2ccccc21)NCc1ccccc1Cl -13.9%
Cc1nn2c(=O)cc(COC(=O)c3ccc(NC(=O)c4cccs4)cc3)nc2s1 9.7%
CCN(c1cc(C)cc(C)c1)S(=O)(=O)c1nnc(NC(=O)c2ccco2)s1 3.29%
COc1ccc(NC(=O)CCN2CCN(CCO)CC2)cc1 -9.45%
COc1ccc2[nH]cc(CCNC(=O)c3cnn(-c4ccccc4Cl)c3C3CCN(C(=O)OC(C)(C)C)CC3)c2c1 -4.39%
CCOc1ccc(C(=O)Nc2ccc(-c3nc4ccccc4s3)c(C)c2)cc1OCC 1.63%
Cc1nc2c(C(=O)NCCc3ccccc3)c[nH]n2c(=O)c1Cc1ccc(F)cc1Cl -14.5%
Cc1ccc(NC(=O)Cn2nnc(-c3nc(-c4ccc(Cl)cc4)no3)c2N)cc1C -4.47%
Cc1cccc(N2CCN(C(=O)c3ccc(NC(=O)c4nsc5ccccc45)cc3)CC2)c1C 8.24%
CCc1nc2c(cnn2-c2ccc(Cl)cc2)c(=O)n1-c1ccc(OC)c(Cl)c1 1.05%
Cc1ccc(OCC(=O)Nc2cc(-c3cccc(C)c3)nn2-c2ccccc2)cc1 7.22%
CCOc1ccccc1C(=O)Nc1cc2c(cc1N1CCOCC1)n(C)c(=O)n2C -28.6%
Cc1ccc(CCNC(=O)c2ccc3c(c2)c(C)c(C)n3Cc2ccccc2)cc1 -16%
COc1ccc(-n2c(=O)c3sc4ccccc4c3n(CC(=O)NCc3ccccc3)c2=O)cc1 9.18%
Cc1ccccc1CNC(=O)c1ccc(CS(=O)Cc2ccc(Cl)cc2)o1 (stereo unspecified) 2.19%
Cc1ccc2nc(N(Cc3cccnc3)C(=O)c3cccs3)sc2c1 -4.05%
CCCn1c(CCC(=O)Nc2cccc(CC)c2)nc2cccnc21 -1.65%
CCOc1ccc(N2CC(c3nc4ccccc4n3Cc3cccc(C)c3)CC2=O)cc1 (stereo unspecified) 4.2%
O=[N+]([O-])c1cc(-c2nc(-c3ccccc3)no2)ccc1NCCc1ccccc1 -5.72%
CCn1c(CC2C(=O)N(C)c3ccccc32)nc2ccccc2c1=O (stereo unspecified) -12.5%
COc1ccc(Cl)cc1NC(=O)CSc1nc(-c2ccccc2)c2ccccc2n1 0.404%
O=C(Nc1cccc(F)c1)[C@@H](c1ccccc1)N1Cc2ccccc2C1=O -0.486%
CCc1ccc(NC(=O)CCCn2nc(C)c3c(C)n(-c4ccccc4)nc3c2=O)cc1 -2.75%
CC(C)CC(C(=O)NCCc1ccccc1)N1Cc2ccccc2C1=O (stereo unspecified) -0.51%
Cc1nn(C(C)(C)C)c(OC(=O)c2cccc(F)c2)c1Sc1ccccc1 0.0251%
Cc1ccc(NC(=O)C(=O)NCCCN2CCOCC2)cc1C -1.44%
Cc1cccc(NC(=O)C2(C)Cc3ccccc3C(=O)O2)c1 (stereo unspecified) -3.7%
CC(=O)Nc1ccc2nc(SCCOc3ccccc3)sc2c1 -0.783%
CCc1ccc(CN(Cc2ccco2)C(=O)COc2ccc(Cl)cc2C)cc1 -14.4%
Cc1c(CNC2CCCCCC2)c(C(=O)O)c(C)n1Cc1ccc(F)cc1 1.02%
COC(=O)c1ccc2c(=O)n(CCCCCC(=O)NC(C)C)c(=O)[nH]c2c1 -0.264%
